According to the supplement of paper PMC4604168 (melanoma cell lines):
This is one part of the list. Repeats are few or missing, and single values can be far off.

Legend:
Assay in all cases: cell count relative to DMSO control; melanoma cells; higher = more viable cells
Settings in all cases: library dose: standard library concentration; 72 h
[1] = system: G361
[2] = system: IPC-298
[3] = system: IST-MEL1
[4] = system: LB2518-MEL
[5] = system: LOXIMVI
[6] = system: MEL-HO
[7] = system: MZ2-MEL
[8] = system: MeWo
[9] = system: RPMI7951
[10] = system: RVH-421
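Note: cells treated in 1,536-well plates, then fixed and DAPI-stained, with nuclei counted from automated high-throughput microscope images.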

| SMILES | cell count [1] | cell count [2] | cell count [3] | cell count [4] | cell count [5] | cell count [6] | cell count [7] | cell count [8] | cell count [9] | cell count [10] |
| --- | --- | --- | --- | --- | --- | --- | --- | --- | --- | --- |
| Cc1cn(-c2cc(NC(=O)c3ccc(C)c(Nc4nccc(-c5cccnc5)n4)c3)cc(C(F)(F)F)c2)cn1 [nilotinib] + C[C@@H](Oc1cc(-c2cnn(C3CCNCC3)c2)cnc1N)c1c(Cl)ccc(F)c1Cl [Crizotinib] (first compound 1 µM, partner dose 1 µM) | 89.2% | 105% | 99% | 99.6% | 134% | 97.6% | 91.4% | 79.1% | 73.9% | 94.1% |
| Cc1cc(Nc2cc(N3CCN(C)CC3)nc(/C=C/c3ccccc3)n2)n[nH]1 + CCCCCCCCCCCC1=C(O)C(=O)C=C(O)C1=O [Embelin] (first compound 0.2 µM, partner dose 6 µM) | 87.1% | 88.6% | 73.4% | 73.9% | 85.5% | 82% | 87% | 90.5% | 74.3% | 88.4% |
| Cc1cc(Nc2cc(N3CCN(C)CC3)nc(/C=C/c3ccccc3)n2)n[nH]1 + COCC[n+]1c2c(n(Cc3cnccn3)c1C)C(=O)c1ccccc1C2=O [YM155] (first compound 0.2 µM, partner dose 0.002 µM) | 79.7% | 55.1% | 49% | 31.6% | 76.4% | 83.9% | 26.1% | 46.8% | 34.8% | 77.9% |
| COc1ccc(C2=N[C@@H](c3ccc(Cl)cc3)[C@@H](c3ccc(Cl)cc3)N2C(=O)N2CCNC(=O)C2)c(OC(C)C)c1 [Nutlin-3] + Cc1cc(Nc2cc(N3CCN(C)CC3)nc(/C=C/c3ccccc3)n2)n[nH]1 [ENMD2076] (first compound 0.5 µM, partner dose 0.2 µM) | 68.7% | 96% | 110% | 59.1% | 62.7% | 84.3% | 88% | 77.7% | 84.4% | 53.6% |
| COc1ccc(C2=N[C@@H](c3ccc(Cl)cc3)[C@@H](c3ccc(Cl)cc3)N2C(=O)N2CCNC(=O)C2)c(OC(C)C)c1 [Nutlin-3] + CC(C)CCN1c2nc(Nc3cc(F)c(O)c(F)c3)ncc2N(C)C(=O)C1C [BID1870] (first compound 0.5 µM, partner dose 1 µM) | 61% | 72.7% | 77% | 74.2% | 59% | 60.6% | 103% | 75.8% | 97.9% | 55.1% |
| Cn1c(=O)n(-c2ccc(C(C)(C)C#N)cc2)c2c3cc(-c4cnc5ccccc5c4)ccc3ncc21 + COC(=O)c1sccc1S(=O)(=O)Nc1ccc(Nc2ccccc2)cc1OC [GSK0660] (first compound 0.02 µM, partner dose 5 µM) | 66.2% | 83.1% | 82.3% | 102% | 119% | 66.4% | 62.1% | 60.1% | 64.1% | 89.5% |
| Cc1cn(-c2cc(NC(=O)c3ccc(C)c(Nc4nccc(-c5cccnc5)n4)c3)cc(C(F)(F)F)c2)cn1 [nilotinib] + C[C@@H](N)c1ccc(C(=O)Nc2ccnc3[nH]ccc23)cc1 [RKI983] (first compound 1 µM, partner dose 2 µM) | 83.1% | 91.6% | 86.4% | 95.6% | 104% | 54.7% | 37.9% | 65.1% | 34.4% | 17.9% |
| Cc1cn(-c2cc(NC(=O)c3ccc(C)c(Nc4nccc(-c5cccnc5)n4)c3)cc(C(F)(F)F)c2)cn1 [nilotinib] + CCN(CC)CCNC(=O)c1c(C)[nH]c(/C=C2\C(=O)Nc3ccc(F)cc32)c1C [sunitinib] (first compound 1 µM, partner dose 2 µM) | 96.6% | 99.3% | 95.2% | 71.6% | 182% | 114% | 96.2% | 66.5% | 73.3% | 126% |
| COc1ccc(C2=N[C@@H](c3ccc(Cl)cc3)[C@@H](c3ccc(Cl)cc3)N2C(=O)N2CCNC(=O)C2)c(OC(C)C)c1 [Nutlin-3] + CS(=O)(=O)c1ccc(C(=O)Nc2ccc(Cl)c(-c3ccccn3)c2)c(Cl)c1 [vismodegib] (first compound 0.5 µM, partner dose 5 µM) | 75.9% | 125% | 111% | 80.7% | 61.9% | 100% | 99.7% | 114% | 132% | 67.5% |
| COc1ccc(C2=N[C@@H](c3ccc(Cl)cc3)[C@@H](c3ccc(Cl)cc3)N2C(=O)N2CCNC(=O)C2)c(OC(C)C)c1 [Nutlin-3] + c1cc(-c2cnn3cc(-c4ccc(OCCN5CCCCC5)cc4)cnc23)ccn1 [Dorsomorphin] (first compound 0.5 µM, partner dose 2 µM) | 40.8% | 79.6% | 71.7% | 67.7% | 73.8% | 85.3% | 71.6% | 72% | 86.6% | 81.7% |
